Substitutions are numbered along the chain they refer to. In names and notes the source's numbering stands. ± gives the standard deviation of the averaged measurements. Laboratory Escherichia coli strains with one amino-acid change in an essential protein, pooled on minimal glucose agar with carbenicillin or gentamicin at twice the control MIC (plus kanamycin and chloramphenicol for the plasmids), 48 h. Fold change of barcode share against drug-free plates; higher = less susceptible. Active = above 20 in both replicates (the paper's putatively resistant). '<' = one read or none on drug, '>' = one read or none on a drug-free plate. Shares are relative, so most strains fall below 1 when a few take over. Listed are strains with at least 15 reads on both drug-free plates, and hits; most hits rest on fewer reference reads. Replicate rank correlation about 0.5. Edits are read from barcodes.
Molecular target: Escherichia coli (laboratory strain)
Assay: barcode share on antibiotic plates over drug-free plates; higher = less susceptible
Description: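 A pool of E. coli strains, each edited to carry one amino-acid change in an essential protein, was grown for 48 h on minimal glucose agar with or without antibiotic; strain barcodes were sequenced; mean of two replicates.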

[1] = antibiotic: carbenicillin, 2× MIC (3.1 µg/mL)
[2] = antibiotic: gentamicin, 2× MIC (MIC 0.45 µg/mL)

B1: hisF V127P (protein)
chain: MLAKRIIPCLDVRDGQVVKGVQFRNHEIIGDIVPLAKRYAEEGADELVFYDITASSDGRVVDKSWVSRVAEVIDIPFCVAGGIKSLEDAAKILSFGADKISINSPALADPTLITRLADRFGVQCIVPGIDTWYDAETGKYHVNQYTGDESRTRVTQWETLDWVQEVQKRGAGEIVLNMMNQDGVRNGYDLEQLKKVREVCHVPLIASGGAGTMEHFLEAFRDADVDGALAASVFHKQIINIGELKAYLATQGVEIRIC
fold change of barcode share [1]: > 109 [active]

B2: hisF V79W (protein)
chain: B1 chain with V79W, P127V
fold change of barcode share [1]: 49.6 [active]

B3: hisF V175A (protein)
chain: B1 chain with P127V, V175A
fold change of barcode share [1]: 0.406 ± 0.052
fold change of barcode share [2]: < 0.0188

B4: hisF V175D (protein)
chain: B1 chain with P127V, V175D
fold change of barcode share [1]: > 35.8 [active]

B5: hisF V175Q (protein)
chain: B1 chain with P127V, V175Q
fold change of barcode share [1]: 111 [active]

B6: hisF I125Q (protein)
chain: B1 chain with I125Q, P127V
fold change of barcode share [1]: 4.7 ± 5.4
fold change of barcode share [2]: < 0.0163

B7: hisF I125A (protein)
chain: B1 chain with I125A, P127V
fold change of barcode share [1]: 1.23 ± 0.038
fold change of barcode share [2]: < 0.0138

B8: argH F259Q (protein)
chain: MALWGGRFTQAADQRFKQFNDSLRFDYRLAEQDIVGSVAWSKALVTVGVLTAEEQAQLEEALNVLLEDVRARPQQILESDAEDIHSWVEGKLIDKVGQLGKKLHTGRSRNDQVATDLKLWCKDTVSELLTANRQLQSALVETAQNNQDAVMPGYTHLQRAQPVTFAHWCLAYVEMLARDESRLQDALKRLDVSPLGCGALAGTAYEIDREQLAGWLGFASATRNSLDSVSDRDHVLELLSAAAIGMVHLSRFAEDLIFQNTGEAGFVELSDRVTSGSSLMPQKKNPDALELIRGKCGRVQGALTGMMMTLKGLPLAYNKDMQEDKEGLFDALDTWLDCLHMAALVLDGIQVKRPRCQEAAQQGYANATELADYLVAKGVPFREAHHIVGEAVVEAIRQGKPLEDLPLSELQKFSQVIDEDVYPILSLQSCLDKRAAKGGVSPQQVAQAIAFAQARLG
fold change of barcode share [1]: 0.322 ± 0.11
fold change of barcode share [2]: 0.0327 ± 0.029

Reference: the supplement of paper PMC11876631
